Some of the results follow. At the low end of the ranking, values are background and their order means little.
target: GST-SBP-SLBP (stem-loop binding protein) (UniProt Q14493); assay: targeted RNA Bind-n-Seq; details: RBNS binding buffer: 25 mM Tris pH 7.5, 150 mM KCl, 3 mM MgCl2, 0.1% Tween, 0.5 mg/mL BSA, 1 mM DTT; 27 nM protein, 750 pM RNA pool; temperature not stated; high values mean tight binding;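 further: DESeq read counts versus GST-SBP nonspecific binding control pulldown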

Sequence	binding signal (log2 fold change)
GGUCACGUCUCAAUCAACUCAUUCUCAGGAGUUUGCUCCUGCAAUCUCAACAGCUCGCAGUCAAG	0.0622
GGUCACGUCUCAAUCAACUCAUUCCCCAGGGAAAUCCCUGGUUAUCUCAACAGCUCGCAGUCAAG	0.181
GGUCACGUCUCAAUCAACUCUUUCUCCAGGGAAAACCCUGGCAAUCUCAACAGCUCGCAGUCAAG	0.103
GGUCACGUCUCAAUCAACUCUAUCCCAGGAGUUUCCUCCUGUUAACUCAACAGCUCGCAGUCAAG	0.217
GGUCACGUCUCAAUCAACUCUUCGCCAGGAGUUUUCUCCUGUAAUCUCAACAGCUCGCAGUCAAG	0.0861
GGUCACGUCUCAAUCAACUCACUAGAGGGGGGGAAAACCCCUUUGCCCUCAAACUCAACAGCUCGCAGUCAAG	-0.188
GGUCACGUCUCAAUCAACUCUUCCUCCAGGGAAAACCCUGGUUUAUUCAACAGCUCGCAGUCAAG	0.207
GGUCACGUCUCAAUCAACUCUAUCCCAGGAGUUUACUCCUGUUUUCUCAACAGCUCGCAGUCAAG	0.399
GGUCACGUCUCAAUCAACUCUUCCUCCAGGGAAAUCCCUGGUUAUGUCAACAGCUCGCAGUCAAG	-0.0986
GGUCACGUCUCAAUCAACUCAACUCCAGGAGUUUUCUCCUGCUUUCUCAACAGCUCGCAGUCAAG	0.0453
GGUCACGUCUCAAUCAACUCAGUCCCAGGAGUUUCCUCCUGUAAAUUCAACAGCUCGCAGUCAAG	0.371
GGUCACGUCUCAAUCAACUCUUCUCCAGGAGUUUUCUCCUGCAAUCUCAACAGCUCGCAGUCAAG	-0.0083
GGUCACGUCUCAAUCAACUCUUCCGCAGGAGUUUUCUCCUGGAUAUUCAACAGCUCGCAGUCAAG	-0.122
GGUCACGUCUCAAUCAACUCUACUCCCAGGGAAAGCCCUGGCUUUCUCAACAGCUCGCAGUCAAG	-0.0203
GGUCACGUCUCAAUCAACUCAUCCCCAGGAGUUUUCUCCUGUUAAUUCAACAGCUCGCAGUCAAG	-0.191
GGUCACGUCUCAAUCAACUCAUCUCCCAGGGAAACCCCUGGUUUACUCAACAGCUCGCAGUCAAG	-0.0938
GGUCACGUCUCAAUCAACUCAACUCCCAGGGAAAUCCCUGGUAUAUUCAACAGCUCGCAGUCAAG	0.00303
GGUCACGUCUCAAUCAACUCAACUCCAGGAGUUUCCUCCUGUAAACUCAACAGCUCGCAGUCAAG	0.0607
GGUCACGUCUCAAUCAACUCAUUUUCCAGGGAAAUCCCUGGUUUACUCAACAGCUCGCAGUCAAG	-0.0157
GGUCACGUCUCAAUCAACUCUCUAGAGGGGGGGAAAACCCCUUUACCCUCCCAUUCAACAGCUCGCAGUCAAG	0.325
GGUCACGUCUCAAUCAACUCUUCUUCAGGAGUUUUCUCCUGUAUAUUCAACAGCUCGCAGUCAAG	-0.0402
GGUCACGUCUCAAUCAACUCAACUUCCAGGGAAACCCCUGGUAUAUUCAACAGCUCGCAGUCAAG	-0.253
GGUCACGUCUCAAUCAACUCUUUUUCCAGGGAAAACCCUGGUUAUCUCAACAGCUCGCAGUCAAG	0.0662
GGUCACGUCUCAAUCAACUCUCCAGAGGGGGGGAAAACCCCUUUGCCCUCAACAUCAACAGCUCGCAGUCAAG	0.226
GGUCACGUCUCAAUCAACUCAAUUUCCAGGGAAACCCCUGGCUUUCUCAACAGCUCGCAGUCAAG	-0.122

Sequence	binding signal (log2 fold change)
GGUCACGUCUCAAUCAACUCAUUCCCCAGGGAAAUCCCUGGCAUAUUCAACAGCUCGCAGUCAAG	0.192
GGUCACGUCUCAAUCAACUCAUGUCCAGGAGUUUCCUCCUGUAAUUUCAACAGCUCGCAGUCAAG	0.154
GGUCACGUCUCAAUCAACUCUAUUUCCAGGGAAACCCCUGGCAUUCUCAACAGCUCGCAGUCAAG	-0.198
GGUCACGUCUCAAUCAACUCAUUCCCCAGGGAAAGCCCUGGCUUACUCAACAGCUCGCAGUCAAG	0.105
GGUCACGUCUCAAUCAACUCAAUCUCCAGGGAAAGCCCUGGUUUAUUCAACAGCUCGCAGUCAAG	0.016
GGUCACGUCUCAAUCAACUCAUUCCCCAGGGAAACCCCUGGCAUAUUCAACAGCUCGCAGUCAAG	0.129
GGUCACGUCUCAAUCAACUCCCCAGAGGGGGGGAAAACCCCUUUACCCUCCAAAUCAACAGCUCGCAGUCAAG	-0.0735
GGUCACGUCUCAAUCAACUCUUUUUCAGGAGUUUACUCCUGCUUACUCAACAGCUCGCAGUCAAG	-0.0555
GGUCACGUCUCAAUCAACUCUUUUCCAGGAGUUUUCUCCUGCAUUCUCAACAGCUCGCAGUCAAG	0.167
GGUCACGUCUCAAUCAACUCAUGUCCAGGAGUUUUCUCCUGCAAUCUCAACAGCUCGCAGUCAAG	0.222
GGUCACGUCUCAAUCAACUCUUCGCCAGGAGUUUUCUCCUGUUUUUUCAACAGCUCGCAGUCAAG	0.0509
GGUCACGUCUCAAUCAACUCCUAAGAGGGGGGGAAAACCCCUUUGCCCUCGAAAUCAACAGCUCGCAGUCAAG	-0.106
GGUCACGUCUCAAUCAACUCAUUUCCAGGAGUUUCCUCCUGUAAUUUCAACAGCUCGCAGUCAAG	0.179
GGUCACGUCUCAAUCAACUCAUCGCCAGGAGUUUACUCCUGCUAAUUCAACAGCUCGCAGUCAAG	0.301
GGUCACGUCUCAAUCAACUCAUCCCCCAGGGAAAACCCUGGUAAAUUCAACAGCUCGCAGUCAAG	-0.00372
GGUCACGUCUCAAUCAACUCUUUUUCCAGGGAAAGCCCUGGUUAUUUCAACAGCUCGCAGUCAAG	-0.118
GGUCACGUCUCAAUCAACUCAAUCCCAGGAGUUUCCUCCUGCUUUCUCAACAGCUCGCAGUCAAG	-0.0431
GGUCACGUCUCAAUCAACUCUAUUUCCAGGGAAAGCCCUGGCUUUUUCAACAGCUCGCAGUCAAG	-0.148
GGUCACGUCUCAAUCAACUCAUCGUCAGGAGUUUUCUCCUGCAAUUUCAACAGCUCGCAGUCAAG	0.0436
GGUCACGUCUCAAUCAACUCCUAAGAGGGGGGGAAAACCCCUUUGCCCUCAACAUCAACAGCUCGCAGUCAAG	-0.418
GGUCACGUCUCAAUCAACUCAUUAGAGGGGGGGAAAACCCCUUUGCCCUCCACUUCAACAGCUCGCAGUCAAG	-0.0298
GGUCACGUCUCAAUCAACUCAACUCCAGGAGUUUACUCCUGUAAAUUCAACAGCUCGCAGUCAAG	0.0441
GGUCACGUCUCAAUCAACUCAAUGGAGGGGGGGAAAACCCCUUUACCCUCAACAUCAACAGCUCGCAGUCAAG	0.242
GGUCACGUCUCAAUCAACUCUAUCCCCAGGGAAAGCCCUGGUAAAUUCAACAGCUCGCAGUCAAG	0.0796
GGUCACGUCUCAAUCAACUCAUCCUCCAGGGAAACCCCUGGUUAAUUCAACAGCUCGCAGUCAAG	-0.0994

Sequence	binding signal (log2 fold change)
GGUCACGUCUCAAUCAACUCUACUUCCAGGGAAAACCCUGGUUAACUCAACAGCUCGCAGUCAAG	-0.254
GGUCACGUCUCAAUCAACUCAUUCCCAGGAGUUUCCUCCUGUAUUCUCAACAGCUCGCAGUCAAG	0.0837
GGUCACGUCUCAAUCAACUCUUCCCCAGGAGUUUCCUCCUGUAAACUCAACAGCUCGCAGUCAAG	0.0453
GGUCACGUCUCAAUCAACUCUUAAGAGGGGGGGAAAACCCCUUUGCCCUCCGUAUCAACAGCUCGCAGUCAAG	0.223
GGUCACGUCUCAAUCAACUCUAUGGCAGGAGUUUUCUCCUGGAAUCUCAACAGCUCGCAGUCAAG	0.0311
GGUCACGUCUCAAUCAACUCUUUUUCAGGAGUUUUCUCCUGCUAACUCAACAGCUCGCAGUCAAG	0.159
GGUCACGUCUCAAUCAACUCUCAAGAGGGGGGGAAAACCCCUUUACCCUCAACAUCAACAGCUCGCAGUCAAG	-0.183
GGUCACGUCUCAAUCAACUCAAUCUCAGGAGUUUCCUCCUGUUUUUUCAACAGCUCGCAGUCAAG	-0.0116
GGUCACGUCUCAAUCAACUCAACUUCAGGAGUUUCCUCCUGCAAAUUCAACAGCUCGCAGUCAAG	-0.00568
GGUCACGUCUCAAUCAACUCUAUCUCAGGAGUUUACUCCUGCAAUCUCAACAGCUCGCAGUCAAG	-0.157
GGUCACGUCUCAAUCAACUCCCCAGAGGGGGGGAAAACCCCUUUACCCUCAUCCUCAACAGCUCGCAGUCAAG	0.566
GGUCACGUCUCAAUCAACUCAUCUUCAGGAGUUUCCUCCUGUUUUCUCAACAGCUCGCAGUCAAG	-0.0366
GGUCACGUCUCAAUCAACUCAUUUCCAGGAGUUUCCUCCUGUUUUUUCAACAGCUCGCAGUCAAG	0.0382
GGUCACGUCUCAAUCAACUCCGCAGAGGGGGGGAAAACCCCUUUACCCUCAAUUUCAACAGCUCGCAGUCAAG	-0.113
GGUCACGUCUCAAUCAACUCUUCCUCCAGGGAAAGCCCUGGUUUACUCAACAGCUCGCAGUCAAG	-0.122
GGUCACGUCUCAAUCAACUCUUUUCCAGGAGUUUACUCCUGUAUUCUCAACAGCUCGCAGUCAAG	-0.0402
GGUCACGUCUCAAUCAACUCAAUUUCAGGAGUUUCCUCCUGCUUAGUCAACAGCUCGCAGUCAAG	0.0515
GGUCACGUCUCAAUCAACUCGUCUUCAGGAGUUUUCUCCUGUAUUUUCAACAGCUCGCAGUCAAG	-0.0544
GGUCACGUCUCAAUCAACUCUAUCUCAGGAGUUUCCUCCUGUUAAUUCAACAGCUCGCAGUCAAG	0.0954
GGUCACGUCUCAAUCAACUCAACUCCCAGGGAAAUCCCUGGCAAACUCAACAGCUCGCAGUCAAG	0.272
GGUCACGUCUCAAUCAACUCUACUUCCAGGGAAAGCCCUGGCUAUUUCAACAGCUCGCAGUCAAG	-0.0124
GGUCACGUCUCAAUCAACUCUCCAGAGGGGGGGAAAACCCCUUUACCCUCCAUAUCAACAGCUCGCAGUCAAG	-0.00132
GGUCACGUCUCAAUCAACUCAUUUUCAGGAGUUUACUCCUGUAGUCUCAACAGCUCGCAGUCAAG	-0.0516
GGUCACGUCUCAAUCAACUCUUUCUCAGGAGUUUCCUCCUGUAAUUUCAACAGCUCGCAGUCAAG	-0.0423
